This note sets out measurements from the supplement of paper PMC10126150.

Sequences with one replicate were seen in a single cluster, so their values are uncertain.
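Further: ATP exposure 15 min at 22 °C before imaging.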

The data set concerns ATP. Description: switch fluorescence ratio, 500 uM ATP over buffer (Cy3 cluster intensity, sum of 5 cycles each) (fold (ratio)); higher = stronger signal-on switching upon ATP binding; sequences stand for … in TCGTCGGCAGCGTCAGATGTGTATAAGAGACAGTTTTTTTTTTTTTTTTTTTTTTTTT…TC. Conditions: aptamer strand: ATP DNA aptamer (quencher-CACCTGGGGGAGTATTGCGGAGGAAGG + anchor), 100 nM annealed; ATP concentration: 500 uM; one replicate. In outline: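 Between each of five buffer/ATP cycles, the flow-cell was stripped with NaOH and re-annealed. Each cycle imaged Cy3-labelled switching-strand clusters, annealed to 100 nM quencher-labelled ATP aptamer on a modified Illumina MiSeq flow-cell, first in selection buffer and then after 15 min with 500 uM ATP at 22 °C. The fluorescence ratio is summed target-cycle over summed buffer-cycle Cy3 intensity per cluster, averaged per switch-domain sequence, with clusters outside 100-1000 RFU excluded.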
Take GCGAGTAGA: the switch fluorescence ratio is 1.03.

For the sequence AGCCAAGGCC, the switch fluorescence ratio was found to be 0.998.

Turning to ACAACGGGAC, the switch fluorescence ratio was 1.28.

On to GACTGAAAAT, for which the switch fluorescence ratio amounted to 1.04.

As to GGTCGGTTTC, the switch fluorescence ratio was found to be 0.967.

As for TGTGTGTCTG, the switch fluorescence ratio is 0.963.

Take TATGTCACGC: the switch fluorescence ratio worked out at 1.06.

Turning to GGTCTAACAA, the switch fluorescence ratio came to 0.989.

As for GGCTAATGT, the switch fluorescence ratio stood at 1.01.

With CAAGGGTTAT, the switch fluorescence ratio turned out to be 1.

As for TGGTGGACTG, the switch fluorescence ratio worked out at 1.06.

TTTGAGGCGG: the switch fluorescence ratio was determined as 0.971.

As to CCAGGGATTA, the switch fluorescence ratio is 1.01.

On to TGTAAGCGAT, for which the switch fluorescence ratio worked out at 1.15.

On to TAGCGGTCT, for which the switch fluorescence ratio worked out at 1.03.

Take TGATACTGCG: the switch fluorescence ratio came to 0.982.

In the case of AAAGGTGGCT, the switch fluorescence ratio was 1.06.

In the case of ACTATCAGCA, the switch fluorescence ratio is 0.994.

With TTCGTTGAGA, the switch fluorescence ratio is 1.01.

For the sequence TATATGCGTC, the switch fluorescence ratio was determined as 1.01.

On to GGGTTCTTCC, for which the switch fluorescence ratio amounted to 1.22.

TATGGTTCCT: the switch fluorescence ratio was 1.04.

In the case of TTATCACTG, the switch fluorescence ratio turned out to be 1.04.

Take CATGGAAAGG: the switch fluorescence ratio is 1.13.

Take CTATGGCCAC: the switch fluorescence ratio turned out to be 1.01.

Take ATATGTGGTC: the switch fluorescence ratio was 0.97.

Consider CAAAGGGAGT, for which the switch fluorescence ratio turned out to be 1.08.

Take TGTATGGGTC: the switch fluorescence ratio was 1.01.

In the case of ACCGGGATTA, the switch fluorescence ratio came out at 1.02.

Turning to GCTGGAGGAG, the switch fluorescence ratio was determined as 0.984.

Regarding CTTATACGAC, the switch fluorescence ratio was 1.29.

On to ACGTCAGTTA, for which the switch fluorescence ratio stood at 1.03.

As to AGGGGAAACG, the switch fluorescence ratio is 0.954.

As to AACGCTGACG, the switch fluorescence ratio stood at 1.05.

Turning to CAGTTAGCAA, the switch fluorescence ratio was found to be 4.

For CTTAACGGAG, the switch fluorescence ratio amounted to 1.03.

Consider ACGTAATTG, for which the switch fluorescence ratio is 1.22.

CAGGGATCGC: the switch fluorescence ratio was 0.97.

On to ATGCCGGTTG, for which the switch fluorescence ratio came out at 0.956.

For TTGTAAAGAC, the switch fluorescence ratio is 1.04.

Turning to CATGAGTTTG, the switch fluorescence ratio was 1.02.

Turning to CTCAAGAGTG, the switch fluorescence ratio was 1.01.

Consider GTACGATTGG, for which the switch fluorescence ratio is 0.986.

On to AGGGGGCCGG, for which the switch fluorescence ratio was determined as 1.04.

On to CATAGCTAAA, for which the switch fluorescence ratio was determined as 1.03.

On to TCTGTACTTT, for which the switch fluorescence ratio stood at 1.

GCGACTGG: the switch fluorescence ratio was 1.08.

As to GGGCCCTACC, the switch fluorescence ratio was determined as 1.06.

AACTTAGGCT: the switch fluorescence ratio was 1.03.

Turning to TCTCGGCCTA, the switch fluorescence ratio was 1.12.

Take CAATAAGTTC: the switch fluorescence ratio stood at 0.974.

Regarding TTCGAGGGTT, the switch fluorescence ratio was 0.983.

As for ACTGTGTGAC, the switch fluorescence ratio was determined as 1.06.

For AGTATTTATG, the switch fluorescence ratio amounted to 0.949.

In the case of TAACCTGTTA, the switch fluorescence ratio was 0.993.

GCGAACCGCT: the switch fluorescence ratio was found to be 1.09.

With AGCCAGTTGT, the switch fluorescence ratio was 1.

Consider TGCTTAAA, for which the switch fluorescence ratio came to 0.961.

GTATAAATCT: the switch fluorescence ratio was found to be 1.07.

For CCTCGCTGCT, the switch fluorescence ratio came out at 2.44.

Regarding TAGCGCTGCG, the switch fluorescence ratio turned out to be 0.997.

With TTGACAACA, the switch fluorescence ratio was 1.05.

For the sequence GCACATATTC, the switch fluorescence ratio was 1.16.

As to TACAGAAT, the switch fluorescence ratio amounted to 1.

In the case of GGATTTGGC, the switch fluorescence ratio is 0.941.

As to CCGTTCCAGA, the switch fluorescence ratio came to 1.03.

Turning to GGTGTAGGAA, the switch fluorescence ratio stood at 1.03.

As to GGCTGCCGAA, the switch fluorescence ratio was found to be 0.956.

For AAACTCTCCG, the switch fluorescence ratio stood at 1.49.

In the case of CTGACGTTG, the switch fluorescence ratio was 1.04.

Regarding GTAGTCAGCT, the switch fluorescence ratio is 0.988.

In the case of CACCGCGGCC, the switch fluorescence ratio turned out to be 2.62.

As for AAATGTTGTT, the switch fluorescence ratio was found to be 1.03.

On to TATACTTTTG, for which the switch fluorescence ratio was found to be 0.947.

Take ACTTGTCACG: the switch fluorescence ratio stood at 1.12.

On to TGATCCCCCC, for which the switch fluorescence ratio was 1.09.

With TCAGTTACTG, the switch fluorescence ratio amounted to 1.02.

Take TAGCCGACGT: the switch fluorescence ratio worked out at 1.05.

Consider CGAATCTGTG, for which the switch fluorescence ratio was 0.954.

Regarding CTTAGCATAT, the switch fluorescence ratio amounted to 1.46.

Turning to CGTAGGCCC, the switch fluorescence ratio is 1.04.

For the sequence TTTGCGCCTA, the switch fluorescence ratio was 0.996.

Turning to TGCGGGGATT, the switch fluorescence ratio is 0.964.

On to CCGATGCTCG, for which the switch fluorescence ratio is 1.19.

With TTCCGTTAGC, the switch fluorescence ratio worked out at 1.56.

On to GGCTCCCCGG, for which the switch fluorescence ratio amounted to 2.3.

In the case of ATATAGCAGC, the switch fluorescence ratio was determined as 1.01.

On to GGACTCCAAC, for which the switch fluorescence ratio was found to be 1.05.

On to GAATCCCCCA, for which the switch fluorescence ratio came to 1.11.

Turning to ATTCTAGCTT, the switch fluorescence ratio is 0.994.

For the sequence GGGTAACCAC, the switch fluorescence ratio stood at 1.06.

As to CATACGGGG, the switch fluorescence ratio worked out at 1.04.

In the case of CATGGGGCTC, the switch fluorescence ratio was determined as 1.

On to AAAATTTCTT, for which the switch fluorescence ratio was found to be 1.02.

TTTGTCGCAG: the switch fluorescence ratio worked out at 0.972.

For TCCGAAGTTT, the switch fluorescence ratio was determined as 2.1.

CAAGACCTGC: the switch fluorescence ratio was 1.03.

On to GATGTGTGGT, for which the switch fluorescence ratio is 0.947.

With AGCAGGGAAA, the switch fluorescence ratio turned out to be 1.01.

Regarding TTAGTACGCA, the switch fluorescence ratio stood at 1.2.

In the case of TTAGTTCACT, the switch fluorescence ratio turned out to be 0.991.

As for CAACTGTTGC, the switch fluorescence ratio came out at 1.

AGATTACGTT: the switch fluorescence ratio came out at 1.01.

In the case of GTAAATTGG, the switch fluorescence ratio amounted to 0.981.

Consider GTTGTTTTCT, for which the switch fluorescence ratio was found to be 1.

Regarding CTTGAACGCG, the switch fluorescence ratio worked out at 1.02.

For the sequence CTGAGACATG, the switch fluorescence ratio turned out to be 0.993.

For TTTGCGGCAA, the switch fluorescence ratio worked out at 1.05.

TAAAGCTG: the switch fluorescence ratio was 1.03.

With CCCCTGCTCC, the switch fluorescence ratio stood at 2.03.

With GGGTCTGACA, the switch fluorescence ratio was 0.988.

Take ATATCCCCAG: the switch fluorescence ratio is 1.27.

Turning to CCGAGTGGGA, the switch fluorescence ratio was 0.963.

Consider TCCTTGATGG, for which the switch fluorescence ratio was determined as 1.02.

Turning to TTGACGTCCC, the switch fluorescence ratio is 1.21.

Turning to GTACCAGACT, the switch fluorescence ratio is 1.02.

For the sequence GTTTCGCTTT, the switch fluorescence ratio is 0.976.

With CTGTCGCACA, the switch fluorescence ratio came out at 1.79.

For CCTTCATTGA, the switch fluorescence ratio was 1.

CTATCTGAAT: the switch fluorescence ratio turned out to be 0.973.
